Laboratory results published in the GPR68 mutational scans of Howard et al. (2025).
The least precise scores are not listed. Not listed are two conditions whose scores span a narrow range. Read del as a deletion of the residues named and ins as an insertion between two positions. For part of these data: The data file names ogerin without a concentration.

B1: GPR68, Q15743 (parent)
chain: MGNITADNSSMSCTIDHTIHQTLAPVVYVTVLVVGFPANCLSLYFGYLQIKARNELGVYLCNLTVADLFYICSLPFWLQYVLQHDNWSHGDLSCQVCGILLYENIYISVGFLCCISVDRYLAVAHPFRFHQFRTLKAAVGVSVVIWAKELLTSIYFLMHEEVIEDENQHRVCFEHYPIQAWQRAINYYRFLVGFLFPICLLLASYQGILRAVRRSHGTQKSRKDQIQRLVLSTVVIFLACFLPYHVLLLVRSVWEASCDFAKGVFNAYHFSLLLTSFNCVADPVLYCFVSETTHRDLARLRGACLAFLTCSRTGRAREAYPLGAPEASGKSGAQGEEPELLTKLHPAFQTPNSPGSGGFPTGRLA

Key:
[1] = variants of: B1; assay: cAMP reporter score (Enrich2 score, wild type = 0); higher = more signal; HEK293T, FACS bins
[2] = variants of: B1; assay: surface expression score (Enrich2 score, wild type = 0); higher = more signal; HEK293T, FACS bins

Variant | cAMP reporter score ([1]; pH 5.5) | cAMP reporter score ([1]; pH 6) | cAMP reporter score ([1]; pH 6, modulator: ogerin) | cAMP reporter score ([1]; pH 6.5, modulator: ogerin) | surface expression score [2]
MGNITADNSSMSCTIDHTIHQTLAPVVYVTVLVVGFPANCLSLYFGYLQIKARNELGVYLCNLTVADLFYICSLPFWLQYVLQHDNWSHGDLSCQVCGILLYENIYISVGFLCCISVDRYLAVAHPFRFHQFRTLKAAVGVSVVIWAKELLTSIYFLMHEEVIEDENQHRVCFEHYPIQAWQRAINYYRFLVGFLFPICLLLASYQGILRAVRRSHGTQKSRKDQIQRLVLSTVVIFLACFLPYHVLLLVRSVWEASCDFAKGVFNAYHFSLLLQSFNCVADPVLYCFVSETTHRDLARLRGACLAFLTCSRTGRAREAYPLGAPEASGKSGAQGEEPELLTKLHPAFQTPNSPGSGGFPTGRLA [T275Q] | -0.729 | -1.17 | -1.06 | -0.131 | -1.83
MGNITADNSSMSCTIDHTIHQTLAPVVYVTVLVVGFPANCLSLYFGYLQIKARNELGVYLCNLTVADLFYICSLPFWLQYVLQHDNWSHGDLSCQVCGILLYENIYISVGFLCCISVDRYLAVAHPFRFHQFRTLKAAVGVSVVIWAKELLTSIYFLMHEEVIEDENQHRVCFEHYPIQAWQRAINYYRFLVGFLFPICLLLASYQGILRAVRRSHGTQKSRKDQIQRLVLSTVVIFLACFLPYHVLLLVRSVWEASCDFAKGVFNAYHFSLLLPSFNCVADPVLYCFVSETTHRDLARLRGACLAFLTCSRTGRAREAYPLGAPEASGKSGAQGEEPELLTKLHPAFQTPNSPGSGGFPTGRLA [T275P] | -0.509 | 0.065 | -1.19 | -1.34 | -1.63
MGNITADNSSMSCTIDHTIHQTLAPVVYVTVLVVGFPANCLSLYFGYLQIKARNELGVYLCNLTVADLFYICSLPFWLQYVLQHDNWSHGDLSCQVCGILLYENIYISVGFLCCISVDRYLAVAHPFRFHQFRTLKAAVGVSVVIWAKELLTSIYFLMHEEVIEDENQHRVCFEHYPIQAWQRAINYYRFLVGFLFPICLLLASYQGILRAVRRSHGTQKSRKDQIQRLVLSTVVIFLACFLPYHVLLLVRSVWEASCDFAKGVFNAYHFSLLLSSFNCVADPVLYCFVSETTHRDLARLRGACLAFLTCSRTGRAREAYPLGAPEASGKSGAQGEEPELLTKLHPAFQTPNSPGSGGFPTGRLA [T275S] | -0.132 | – | -0.615 | -0.146 | 0.237
MGNITADNSSMSCTIDHTIHQTLAPVVYVTVLVVGFPANCLSLYFGYLQIKARNELGVYLCNLTVADLFYICSLPFWLQYVLQHDNWSHGDLSCQVCGILLYENIYISVGFLCCISVDRYLAVAHPFRFHQFRTLKAAVGVSVVIWAKELLTSIYFLMHEEVIEDENQHRVCFEHYPIQAWQRAINYYRFLVGFLFPICLLLASYQGILRAVRRSHGTQKSRKDQIQRLVLSTVVIFLACFLPYHVLLLVRSVWEASCDFAKGVFNAYHFSLLLNSFNCVADPVLYCFVSETTHRDLARLRGACLAFLTCSRTGRAREAYPLGAPEASGKSGAQGEEPELLTKLHPAFQTPNSPGSGGFPTGRLA [T275N] | -1.42 | -0.779 | -1.93 | -0.486 | –
